From patent US20140056895 (published 2014)

B1: Cross-over IL13(G4S2)IL4CH1-Fc / IL4(G4S2)IL13CL (antibody)
chain 1: EVQLKESGPGLVAPGGSLSITCTVSGFSLTDSSINWVRQPPGKGLEWLGMIWGDGRIDYADALKSRLSISKDSSKSQVFLEMTSLRTDDTATYYCARDGYFPYAMDFWGQGTSVTVSSGGGGSGGGGSQVQLQQSGPELVKPGASVKISCKASGYSFTSYWIHWIKQRPGQGLEWIGMIDPSDGETRLNQRFQGRATLTVDESTSTAYMQLRSPTSEDSAVYYCTRLKEYGNYDSFYFDVWGAGTLVTVSS[letters of human IgG1 constant region not shown]
chain 2: DIQMTQSPASLSVSVGDTITLTCHASQNIDVWLSWFQQKPGNIPKLLIYKASNLHTGVPSRFSGSGSGTGFTLTISSLQPEDIATYYCQQAHSYPFTFGGGTKLEIKGGGGSGGGGSDIVLTQSPASLAVSLGQRATISCRASESVDSYGQSYMHWYQQKAGQPPKLLIYLASNLESGVPARFSGSGSRTDFTLTIDPVQAEDAATYYCQQNAEDSRTFGGGTKLEIKRTVAAPSVFIFPPSDEQLKSGTASVVCLLNNFYPREAKVQWKVDNALQSGNSQESVTEQDSKDSTYSLSSTLTLSKADYEKHKVYACEVTHQGLSSPVTKSFNRGEC
B2: Cross-over IL13(G4S2)IL4CH1-Fc / IL4(G4S)IL13CL (antibody)
chain 1: B1 chain 1
chain 2: DIQMTQSPASLSVSVGDTITLTCHASQNIDVWLSWFQQKPGNIPKLLIYKASNLHTGVPSRFSGSGSGTGFTLTISSLQPEDIATYYCQQAHSYPFTFGGGTKLEIKGGGGSDIVLTQSPASLAVSLGQRATISCRASESVDSYGQSYMHWYQQKAGQPPKLLIYLASNLESGVPARFSGSGSRTDFTLTIDPVQAEDAATYYCQQNAEDSRTFGGGTKLEIKRTVAAPSVFIFPPSDEQLKSGTASVVCLLNNFYPREAKVQWKVDNALQSGNSQESVTEQDSKDSTYSLSSTLTLSKADYEKHKVYACEVTHQGLSSPVTKSFNRGEC
B3: Cross-over IL13(G4S)IL4CH1-Fc / IL4(G4S2)IL13CL (antibody)
chain 1: EVQLKESGPGLVAPGGSLSITCTVSGFSLTDSSINWVRQPPGKGLEWLGMIWGDGRIDYADALKSRLSISKDSSKSQVFLEMTSLRTDDTATYYCARDGYFPYAMDFWGQGTSVTVSSGGGGSQVQLQQSGPELVKPGASVKISCKASGYSFTSYWIHWIKQRPGQGLEWIGMIDPSDGETRLNQRFQGRATLTVDESTSTAYMQLRSPTSEDSAVYYCTRLKEYGNYDSFYFDVWGAGTLVTVSS[letters of human IgG1 constant region not shown]
chain 2: B1 chain 2
B4: Cross-over IL13(G4S)IL4CH1-Fc / IL4(G4S)IL13CL (antibody)
chain 1: B3 chain 1
chain 2: B2 chain 2

Legend:
IL13 = IL13 (human, UniProt P35225)
Sequence of IL13 (P35225 35-146): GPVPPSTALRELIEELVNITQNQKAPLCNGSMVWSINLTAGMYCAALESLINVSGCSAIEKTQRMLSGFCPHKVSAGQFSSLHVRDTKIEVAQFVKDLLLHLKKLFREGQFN

IL4 = target: T1, IL4 (human, UniProt P05112)
T1 chain: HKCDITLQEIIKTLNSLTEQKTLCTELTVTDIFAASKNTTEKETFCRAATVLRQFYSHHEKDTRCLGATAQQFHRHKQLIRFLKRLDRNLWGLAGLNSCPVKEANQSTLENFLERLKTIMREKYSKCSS

Binder	binding result (IL13)	binding result (IL4)
B1	no binding	no binding
B2	no binding	–
B3	no binding	–
B4	no binding	–
